Data published in PubChem BioAssay AID1508624 (National Center for Advancing Translational Sciences (NCATS), 2021).
Screen size: about 48,000 compounds; about 120 (0.25%) were called active. Another 4% or so got no clear call; they are omitted. Calls follow the shape of the dose curve; as a rule, active = well fitted activation curve with a large enough effect; inconclusive = small, poorly fitted or top-dose-only effect, or another doubt; inactive = no such curve, though single readings can be large or run the other way. Some of the results follow.

Assay: Primary qHTS for Identification of Small Molecule Activators of Huntingtin-Antisense Promoter Activity; also: nearly all actives have a fitted effect of over 55% in size
Settings: HEK293 HTT-AS promoter firefly luciferase reporter, 24 h; series mostly up to 57.5 µM; activity change, positive = activation: at the top concentration
In short: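 HEK293 Fluc reporter, 2,500 cells/well, 24 h pre-culture; cpds up to 57.5 uM final, 24 h 37 degrees C; Dual-Glo, 10 min RT; normalized vehicle = 0%, zero RLU = -100%.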

Activity change, positive = activation, inactive:
COc1ccc(NC(=O)c2sc3nc(C)c(C(=O)Nc4ccc(C)cc4C)c(-c4cccs4)c3c2N)cc1 -20%
CCOc1ccc(NC(=O)C(=O)NCCc2csc(-c3ccc(C)cc3)n2)cc1 -7.33%
Cc1noc2ncnc(NCc3ccccc3Cl)c12 -45.4%
COc1ccc(OC)c(NC(=O)c2sc3nc4c(cc3c2N)CCCCCC4)c1 -32.9%
Cc1ccc(C)c(N2CCN(C(c3ccc(F)cc3)c3nnc(-c4ccccc4)o3)CC2)c1 (stereo not given) -13.1%
CCN(Cc1ccccc1)C(=O)Cn1c(=O)oc2cc(S(=O)(=O)N3CCCCCC3)ccc21 -26.3%
Cc1ccccc1CSc1cn(CC(=O)N2CCCC2)c2ccccc12 -11.2%
COc1ccc(-c2cc(C(F)(F)F)nc(NCCc3ccccc3)n2)cc1 9.34%
COC(=O)c1c(SCC(=O)Nc2cc(F)ccc2F)[nH]c2ccc(C)cc2c1=O 18.1%
Cc1c(-c2ccc(Cl)cc2)c(=O)oc2c(CN3CCOCC3)c(O)ccc12 -11.1%
O=C(NCCc1ccccc1)c1cc2sccc2n1Cc1ccc(F)cc1 -13.6%
COC(=O)c1cccc(CN2C(=O)SC(Nc3ccc(Br)cc3)C2=O)c1 (stereo not given) -20.5%
Cc1ccc(NC(=O)CSc2nc3ccc(NC(=O)c4ccco4)cc3s2)c(C)c1 -27.4%
CSc1cccc(NC(=O)C(c2ccccc2)N2Cc3ccccc3C2=O)c1 (stereo not given) -11.8%
CNC(=O)c1c(NC(=O)c2ccc(S(=O)(=O)N3CCCC(C)C3)cc2)sc2c1CCC2 (stereo not given) -14.2%
CC(C)(C)c1ccc(OCC(=O)NC(Cc2c[nH]c3ccccc23)C(=O)O)cc1 (stereo not given) -10.4%
CCCCn1nc(NC(=O)c2cccc(Cl)c2)c2cc3ccc(C)cc3nc21 3.22%
CC(=O)Nc1ccc(NS(=O)(=O)c2cc3c4c(c2)CC(=O)N4CCC3)cc1 -6.2%
COc1cc(C(=O)NCCS(=O)(=O)N2CCN(c3ccccc3)CC2)cc(OC)c1OC -3.91%
CN[C@H]1CC[C@@H](c2ccc(Cl)c(Cl)c2)c2ccccc21 -38.2%
Cn1cc(S(=O)(=O)c2ccc(Cl)cc2)c(=O)c2cc(F)c(N3CCOCC3)cc21 -23.9%
COc1ccc(-c2cc3nc(C)c(CCC(=O)N4CCN(c5cc(C)ccc5C)CC4)c(C)n3n2)c(OC)c1 -21.7%
CCOc1ccc(NC(=O)CN2CCN(CC(=O)Nc3ccc(OC)cc3)CC2)cc1 -2.74%
COc1ccc(N2CCN(S(=O)(=O)CCNC(=O)c3ccc(OC(C)C)cc3)CC2)cc1 -0.115%
COc1ccccc1/C=C/c1nc(C#N)c(N2CCN(c3ccccc3)CC2)o1 -0.226%
CN(C(=O)CSc1nc2ccc(NC(=O)COc3ccccc3Cl)cc2s1)c1ccccc1 -6.26%
Cc1ccc(Nc2c(-c3ccccc3O)nc3cc(C)ccn23)cc1 -8.08%
COc1ccccc1N1CCN(C(=O)C2CCCN(S(=O)(=O)c3ccc4c(c3)oc(=O)n4C)C2)CC1 (stereo not given) -40.7%
Cc1ccc(C)c(NC(=O)Cn2cnc3nc4c(cc3c2=O)CCCC4)c1 0.0509%
CCOC(=O)c1cccc(NC(=O)c2ccc3snnc3c2)c1 -3.12%
CCc1ccc(-n2c(N3CCN(c4cccc(C)c4C)CC3)nc3ccccc3c2=O)cc1 -19%
Cc1ccc(Nc2nc(N)nc(N)c2S(=O)(=O)c2ccccc2)cc1 -28.7%
CC1CC(=O)NN=C1c1ccc(NCC(C)(C)NCC(O)COc2cc(Cl)ccc2C#N)cc1 (stereo not given) -6.83%
COC(=O)c1sccc1S(=O)(=O)N(CC(=O)NCc1ccccc1)c1ccc(C)cc1 -16.5%
COc1ccccc1C(=O)Nc1nc(-c2ccc(Br)cc2)ns1 -6.05%
Cc1nc2ccn(Cc3cccnc3)c(=O)c2cc1C(=O)N1CCN(c2ccccc2)CC1 -2.65%
COC(=O)C1CCN(C(c2ccccc2Cl)c2sc3nc(-c4ccco4)nn3c2O)CC1 (stereo not given) 8.63%
CCOC(=O)CN1C(C(=O)c2ccccc2)=C(OC(=O)c2ccccc2)c2ccccc2S1(=O)=O -9.7%
Cc1ccc(NC(=O)C2CCCN(S(=O)(=O)c3ccc(F)cc3)C2)cc1 (stereo not given) -12%
CCOC(=O)CSc1nnc2n(-c3ccccc3)c(=O)c3c4c(sc3n12)COC(C(C)C)C4 (stereo not given) 1.58%
CCCCN(CC)CCNC(=O)C1CCN(c2nnc(C)c3c(C)n(-c4ccc(C)cc4)nc23)CC1 -12.6%
Cc1cc2c(cc3c(=O)n(CC(=O)NCc4ccccc4Br)ncn32)s1 -0.638%
CCc1c(C)nc2nncn2c1NCc1ccc(OC)cc1 -34.9%
Cc1ccc(Cc2c(C)nc3c(-c4ccccc4)c(C)[nH]n3c2=O)cc1 -41.9%
Cc1ccc(-n2nc(C)c3c(C(=O)O)cc(C)nc32)cc1 -4.64%
Oc1ccccc1-c1nnco1 2.74%
CCN(CC)c1ccc(NS(=O)(=O)c2ccc(-c3coc(C)n3)cc2)c(C)c1 -30.5%
CCN(CC)c1cc(C)c2cc(NC(=O)/C=C/c3ccccc3OC(C)C)ccc2n1 -17.3%
Cc1ccc(Oc2nc3ccccn3c(=O)c2/C=C(\C#N)c2nc3ccccc3s2)c(C)c1 1.61% [at 11.5 µM, percent change from vehicle, -100% = no light]
Cc1cc(C)c2c(=O)c3c(oc2c1)C(=O)N(Cc1ccco1)C3c1ccc(F)cc1 (stereo not given) -9.6%
CC(=O)N1CCc2c(sc3c2c(=O)n(-c2cccc(Cl)c2)c(=O)n3Cc2ccc(F)cc2Cl)C1 -28.5%
Cc1nn(C)c2c1c(C(F)(F)F)cc(=O)n2CC(=O)N1CCN(c2ccccc2F)CC1 2.65%
Cc1cc(-c2ccc(C)c(S(=O)(=O)N3c4ccccc4CC3C)c2)on1 (stereo not given) -46.9%
CCOC(=O)c1c(NC(=O)/C=C/c2ccc(OCC)cc2)sc2c1CCCC2 3.43%
O=C(NCc1ccc2c(c1)CCN2C(=O)c1ccc(Cl)cc1)c1ccco1 -3.13%
O=C(Cn1c(=O)n(-c2ccccc2)c(=O)c2c3c(sc21)CCCC3)Nc1ccccc1 -22.5%
CCOC(=O)c1noc2nc(C)n(CC(=O)Nc3ccc(OC)c(Cl)c3)c(=O)c12 0.841%
O=C(O)CSc1nnc(-c2ccc(O)cc2)o1 -12.5%
Cc1cc(N2CCC(C(=O)Nc3ccc(Cl)cc3)CC2)n2nc(C)c(-c3ccc(Cl)cc3)c2n1 -4.6%
Cc1ccc(CC(=O)Nc2c(C(=O)N3CCN(c4ccccc4)CC3)oc3ccccc23)cc1 -16.7%
